In the supplement of paper PMC8728848:
The list shows a part of the results.

Assays:
Assay in all cases: glycan array binding signal (z-score within array); higher = stronger binding
Settings in all cases: glycan notation: IUPAC condensed, linker removed
[1] = target: Fuc(a1-3)[Gal(b1-4)]GlcNAc
Procedure, shortened: (§1)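 Glycan array binding is given as a within-array Z-score, which can be read as non-binding when negative. The arrays, 3228 of them, came from the Consortium for Functional Glycomics database and were retained only where the protein sequence was available. Z-scores were averaged across arrays of the same protein sequence at different concentrations or buffers and across linkers.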

[2] = target: Fuc(a1-3)[Gal(b1-4)]GlcNAc(b1-4)Gal(b1-4)[Fuc(a1-3)]GlcNAc
Procedure, shortened: as §1

[3] = target: Fuc(a1-3)[Gal(b1-4)]GlcNAc(b1-4)Gal(b1-4)[Fuc(a1-3)]GlcNAc(b1-4)Gal(b1-4)[Fuc(a1-3)]GlcNAc
Procedure, shortened: as §1

[4] = target: Fuc(a1-3)[Gal3S(b1-4)]GlcNAc
Procedure, shortened: as §1

[5] = target: Fuc(a1-3)[GalNAc(b1-4)]GlcNAc
Procedure, shortened: as §1

[6] = target: Fuc(a1-4)GlcNAc
Procedure, shortened: as §1

[7] = target: Fuc(b1-3)GlcNAc
Procedure, shortened: as §1

[8] = target: Gal(a1-2)Gal
Procedure, shortened: as §1

[9] = target: Gal(a1-3)Gal
Procedure, shortened: as §1

[10] = target: Gal(a1-3)Gal(b1-3)GlcNAc
Procedure, shortened: as §1

[11] = target: Gal(a1-3)Gal(b1-4)Glc
Procedure, shortened: as §1

[12] = target: Gal(a1-3)Gal(b1-4)GlcNAc
Procedure, shortened: as §1

[13] = target: Gal(a1-3)Gal(b1-4)[Fuc(a1-3)]GlcNAc
Procedure, shortened: as §1

[14] = target: Gal(a1-3)GalNAc
Procedure, shortened: as §1

[15] = target: Gal(a1-3)[Gal(a1-4)]Gal(b1-4)GlcNAc
Procedure, shortened: as §1

[16] = target: Gal(a1-4)Gal(b1-4)Glc
Procedure, shortened: as §1

[17] = target: Gal(a1-4)Gal(b1-4)GlcNAc
Procedure, shortened: as §1

[18] = target: Gal(a1-4)GlcNAc
Procedure, shortened: as §1

[19] = target: Gal(a1-6)Glc
Procedure, shortened: as §1

[20] = target: Gal(b1-2)Gal
Procedure, shortened: as §1

[21] = target: Gal(b1-3)Gal
Procedure, shortened: as §1

[22] = target: Gal(b1-3)GalNAc
Procedure, shortened: as §1

[23] = target: Gal(b1-3)GalNAc(b1-3)Gal(a1-4)Gal(b1-4)Glc
Procedure, shortened: as §1

[24] = target: Gal(b1-3)GalNAc(b1-4)Gal(b1-4)Glc
Procedure, shortened: as §1

[25] = target: Gal(b1-3)GalNAc(b1-4)[Neu5Ac(a2-3)]Gal(b1-4)Glc
Procedure, shortened: as §1

[26] = target: Gal(b1-3)GlcNAc
Procedure, shortened: as §1

[27] = target: Gal(b1-3)GlcNAc(b1-3)Gal(b1-4)Glc
Procedure, shortened: as §1

[28] = target: Gal(b1-3)GlcNAc(b1-3)Gal(b1-4)GlcNAc
Procedure, shortened: as §1

[29] = target: Gal(b1-3)[Fuc(a1-4)]GlcNAc
Procedure, shortened: as §1

[30] = target: Gal(b1-3)[Fuc(a1-4)]GlcNAc(b1-3)Gal(b1-4)GlcNAc
Procedure, shortened: as §1

B1: DCAL1 (Homo sapiens), Q8IZS7 (protein)
chain: MVSNFFHVIQVFEKSATLISKTEHIGFVIYSWRKSTTHLGSRRKFAISIYLSEVSLQKYDCPFSGTSFVVFSLFLICAMAGDVVYADIKTVRTSPLELAFPLQRSVSFNFSTVHKSCPAKDWKVHKGKCYWIAETKKSWNKSQNDCAINNSYLMVIQDITAMVRFNI
Which “glycan array binding signal (z-score)” value [1] does the source give for B1 here?
Its value is -0.107.

What about the “glycan array binding signal (z-score)” value [2] of the same binder?
Its value is -0.069.

What about the “glycan array binding signal (z-score)” value [3] of the same binder?
Its value is -0.214.

What about the “glycan array binding signal (z-score)” value [4] of the same binder?
The value was -0.246.

And the “glycan array binding signal (z-score)” value [5]?
Its value is -0.168.

And the “glycan array binding signal (z-score)” value [6]?
The value was -0.271.

What about the “glycan array binding signal (z-score)” value [7] of the same binder?
The value was -0.293.

What about the “glycan array binding signal (z-score)” value [8] of the same binder?
The value was -0.273.

And the “glycan array binding signal (z-score)” value [9]?
The value was -0.2.

What about the “glycan array binding signal (z-score)” value [10] of the same binder?
Its value is -0.109.

What about the “glycan array binding signal (z-score)” value [11] of the same binder?
Its value is 0.001.

And the “glycan array binding signal (z-score)” value [12]?
Its value is -0.169.

And the “glycan array binding signal (z-score)” value [13]?
The value was -0.072.

And the “glycan array binding signal (z-score)” value [14]?
The value was -0.214.

What about the “glycan array binding signal (z-score)” value [15] of the same binder?
The value was -0.226.

And the “glycan array binding signal (z-score)” value [16]?
Its value is -0.197.

And the “glycan array binding signal (z-score)” value [17]?
Its value is -0.217.

And the “glycan array binding signal (z-score)” value [18]?
The value was -0.075.

And the “glycan array binding signal (z-score)” value [19]?
Its value is -0.201.

And the “glycan array binding signal (z-score)” value [20]?
Its value is -0.213.

And the “glycan array binding signal (z-score)” value [21]?
The value was -0.244.

And the “glycan array binding signal (z-score)” value [22]?
Its value is -0.214.

What about the “glycan array binding signal (z-score)” value [23] of the same binder?
The value was -0.25.

What about the “glycan array binding signal (z-score)” value [24] of the same binder?
The value was -0.169.

What about the “glycan array binding signal (z-score)” value [25] of the same binder?
Its value is -0.211.

What about the “glycan array binding signal (z-score)” value [26] of the same binder?
Its value is -0.172.

What about the “glycan array binding signal (z-score)” value [27] of the same binder?
Its value is -0.181.

And the “glycan array binding signal (z-score)” value [28]?
Its value is -0.209.

And the “glycan array binding signal (z-score)” value [29]?
Its value is -0.102.

And the “glycan array binding signal (z-score)” value [30]?
The value was -0.35.
